Results reported in PubChem BioAssay AID445 (National Center for Advancing Translational Sciences (NCATS), 2006).
The campaign covered roughly 110,000 compounds. About 40 (0.04%) were called active. Inconclusive means that the source gave no clear call. Such entries were picked first, then a sample of the others. Calls come from the whole dose curve; as a rule, active = well fitted curve in the direction sought with a large enough effect in the signal ratio (not every such curve was filed as active); inconclusive = small, poorly fitted or top-dose-only effect, or a change in a side signal; inactive = flat fitted curve, though single readings scatter; the % refers to the signal ratio. A potency beside an inconclusive call is a rough fit, not a confirmed value.
Potency is the fitted concentration of half-maximal effect.

Assay: IkB Signaling;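 for IkBa stabilization activation: 0% = basal untreated cells and 100% = reference inhibitor full response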
Settings: ABC-DLBCL IkBa-CBG/CBR dual luciferase ratio (green luciferase fused to IkBa over red control in OCI-Ly3 lymphoma cells), 4 h; IkBa stabilization activation: at 57.1 µM (top of the series), scaled: untreated 0%, proteasome inhibitor 100% unless noted
How it was run: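 Curves were fitted separately to fusion (green), unfused (red) and ratio luminescence, then classed by r2, magnitude and activity. Cells: OCI-Ly3, 4 h compound plus doxycycline at 37C; 10 uM MG-132 defined full response.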
For `COC(=O)c1sc(NC(=O)c2ccc(OC)cc2OC)nc1C`, the Potency was inconclusive: 0.0126 µM [signal inhibitor, full curve].
For `O=C(Nc1ccc2nc(SCC(=O)N3CCc4ccccc43)sc2c1)c1ccc(F)cc1`, the IkBa stabilization activation was “inactive”.
In the case of `Cc1nnc(OCc2nc3ccccc3n2C)c2ccccc12`, the IkBa stabilization activation is reported as “inactive”.
In the case of `Cc1ccc(NC(=O)c2cnn3c(C(F)F)cc(-c4ccccc4)nc23)cc1F`, the IkBa stabilization activation is reported as “inactive”.
In the case of `CCCn1c(SCc2nc(-c3ccc(OC)c(OC)c3)no2)nnc1-c1ccccc1`, the IkBa stabilization activation is reported as inconclusive: -0.321% [signal inhibitor].
In the case of `OC1CCCN(c2c3c(nc4cc(-c5cccc(Cl)c5)nn24)CCC3)C1` (stereo not given), the IkBa stabilization activation is reported as “inactive”.
For `Cc1cc(Nc2ccc(F)cc2)n2c(nc3ccccc32)c1C#N`, the IkBa stabilization activation was “inactive”.
For `COC(=O)c1ccccc1NC(=O)c1ccc2c(c1)CCN2S(C)(=O)=O`, the IkBa stabilization activation was “inactive”.
In the case of `Cc1c(-c2nc(-c3ccccc3)no2)nnn1-c1cccc(C(F)(F)F)c1`, the Potency is reported as inconclusive: 6.31 µM [signal inhibitor].
In the case of `COc1ccccc1CNC(=O)c1ccc2c(c1)nc(C)n2-c1ccccc1OC`, the IkBa stabilization activation is reported as inconclusive: -0.145% [signal inhibitor].
In the case of `CCn1cc(CN(C)C(=O)CSc2nc(-c3ccco3)cc(C(F)(F)F)n2)c(C)n1`, the IkBa stabilization activation is reported as inconclusive: 3.14% [signal inhibitor].
For `CC(=O)Nc1cccc(C(=O)N2CCN(Cc3ccccc3)CC2)c1`, the IkBa stabilization activation was “inactive”.
With `CCOc1ccc(NC(=O)Cn2c(C)cc3ccccc3c2=O)cc1` the IkBa stabilization activation was inconclusive: 3.52% [signal inhibitor].
With `CCOc1ccccc1NC(=O)CN1C(=O)CC(c2ccc(OC)c(OC)c2)Sc2ccccc21` (stereo not given) the IkBa stabilization activation was inconclusive: 12.3% [signal inhibitor].
For `COc1ccc(-c2n[nH]c(C(F)(F)F)c2-c2cc3ccccc3o2)c(O)c1`, the IkBa stabilization activation was inconclusive: 0.0382% [signal inhibitor].
For `COc1cc(OC)cc([C@H](CNc2ncnc3c2ncn3[C@@H]2O[C@@H](CO)[C@H](O)[C@@H]2O)c2ccccc2C)c1`, the IkBa stabilization activation was inconclusive: 4.93% [signal activator].
In the case of `Cc1ccc(N2C(=O)CCSC23C(=O)N(Cc2ccccc2)c2ccccc23)cc1F` (stereo not given), the IkBa stabilization activation is reported as inconclusive: -1.89% [signal inhibitor].
In the case of `Cc1ccc(CNC(=O)Cn2c(=O)n(-c3ccc(Cl)cc3)c(=O)c3c(C)c(C)sc32)cc1`, the IkBa stabilization activation is reported as inconclusive: -2.2% [signal inhibitor].
In the case of `O=C(NCc1ccccc1)c1nn(-c2ccccc2)nc1CO`, the IkBa stabilization activation is reported as inconclusive: -0.515% [signal inhibitor].
With `Cc1cc(C)cc(NS(=O)(=O)c2ccc3[nH]cc(C(=O)N(C)Cc4ccccc4)c(=O)c3c2)c1` the IkBa stabilization activation was inconclusive: 12.7% [signal inhibitor].
For `Cc1nn(C)c2c1c(C(F)(F)F)cc(=O)n2C(C)C(=O)NCc1ccc(Cl)cc1` (stereo not given), the IkBa stabilization activation was inconclusive: 3.93% [signal inhibitor].
In the case of `CCOC(=O)c1ccc(NS(=O)(=O)c2cc(-c3onc(C)c3C)ccc2C)cc1`, the IkBa stabilization activation is reported as inconclusive: 9.51% [signal inhibitor].
For `CCSc1nnc(NC(=O)c2ccc(Br)s2)s1`, the Potency was inconclusive: 0.794 µM [signal inhibitor, full curve].
With `CCN1C(=O)c2ccccc2S(=O)c2ccc(C(=O)N3CCN(c4cccc(C)c4)C(C)C3)cc21` (stereo not given) the IkBa stabilization activation was inconclusive: 6.12% [signal inhibitor].
In the case of `CCCCCCC1C(C#N)=C(N)OC2=C1C(=O)CCC2` (stereo not given), the IkBa stabilization activation is reported as “inactive”.
With `Cc1ccc(C2=Nc3ccccc3N(CC(=O)NCc3ccc(F)cc3)C(=O)C2)cc1C` the IkBa stabilization activation was “inactive”.
In the case of `COc1ccc(/C=C(\C#N)c2nc(-c3cc4c(ccc5ccccc54)oc3=O)cs2)cc1O`, the IkBa stabilization activation is reported as inconclusive: 13.1% [signal inhibitor].
With `O=C(O)c1ccc(-n2c(/C=C\c3ccc(O)cc3)nc3ccccc3c2=O)cc1` the IkBa stabilization activation was inconclusive: 19.5% [signal inhibitor].
In the case of `CCOC(=O)c1ccccc1NC(=O)c1sc2ncn(Cc3cccc(F)c3)c(=O)c2c1C`, the IkBa stabilization activation is reported as inconclusive: 0.185% [signal inhibitor].
In the case of `CC1=C(C(=O)Nc2cccnc2)C(c2ccc(Cl)cc2)n2nc(-c3ccccc3)nc2N1` (stereo not given), the IkBa stabilization activation is reported as inconclusive: 3.08% [signal inhibitor].
With `COc1ccc(OC)c(S(=O)(=O)NCc2cccn2Cc2cccc(C)c2)c1` the IkBa stabilization activation was inconclusive: 3.05% [signal inhibitor].
In the case of `Clc1ccc(OCCN2CCN(c3ncnc4sccc34)CC2)cc1`, the IkBa stabilization activation is reported as inconclusive: 2.07% [signal inhibitor].
In the case of `Cc1ccc(/C=N/c2sc3c(c2C#N)CCC3)s1`, the IkBa stabilization activation is reported as “inactive”.
In the case of `CCN(CC)CC[n+]1ccc2c(C)c3[nH]c4ccc(O)cc4c3c(C)c2c1`, the IkBa stabilization activation is reported as inactive: -4.48% [at 11.4 µM, scaled: untreated 0%, proteasome inhibitor 100%].
With `Cc1ccc(C)c(NC(=O)CSc2c3c(nc4ccc(Cl)cc24)CCCC3)c1` the IkBa stabilization activation was inconclusive: 2.16% [signal inhibitor].
With `COc1ccc(C(=O)Nc2cccc(OCc3cc(=O)n4c5c(sc4n3)CCCC5)c2)cc1` the IkBa stabilization activation was inconclusive: 4.85% [signal inhibitor].
With `O=C(CCC(=O)c1ccc[nH]1)c1ccc(Cl)cc1` the IkBa stabilization activation was “inactive”.
With `COc1ccc(CC(=O)Nc2cccc(-c3nnc(-c4cccc(C)c4)o3)c2)cc1OC` the IkBa stabilization activation was inconclusive: -9.13% [signal inhibitor].
With `COC(=O)c1sc(NC(=O)/C=C/c2ccc(OC)c(OC)c2)c(C(=O)OC)c1C` the Potency was inconclusive: 10 µM [rising, partial curve].
For `Cc1ccc(-c2nnc(SCc3ccccc3F)o2)cc1`, the IkBa stabilization activation was “inactive”.
In the case of `COc1ccccc1NC(=O)CSc1nc2ccccc2c2nc(-c3ccccc3)nn12`, the IkBa stabilization activation is reported as “inactive”.
For `COc1ccccc1-c1cc(C(=O)Nc2ccccc2C(F)(F)F)no1`, the Potency was inconclusive: 25.1 µM [signal inhibitor, partial curve].
In the case of `O=C(NCCSCc1ccc(Cl)cc1)C1CCN(S(=O)(=O)Cc2ccccc2)CC1`, the IkBa stabilization activation is reported as inconclusive: 1.26% [signal inhibitor].
For `O=C(CN1C(=O)C2CCCCN2c2ccc(C(=O)N3CCCC3)cc21)NCc1cccc(Cl)c1` (stereo not given), the IkBa stabilization activation was inconclusive: 0.579% [signal inhibitor].
For `Cc1ccc(Cl)c2sc(NC(=O)CS(=O)(=O)c3ccc(Cl)cc3)nc12`, the IkBa stabilization activation was inconclusive: 14.1% [signal inhibitor].
In the case of `O=c1c2cc(N3CCOCC3)ccc2[nH]c(=S)n1CCN1CCCC1`, the IkBa stabilization activation is reported as “inactive”.
With `CCOc1cccc(C2c3c(oc4ccc(F)cc4c3=O)C(=O)N2CCc2ccc(OC)cc2)c1` (stereo not given) the IkBa stabilization activation was “inactive”.
With `O=C(CSc1nnc2c(n1)[nH]c1ccc(F)cc12)OCc1ccccc1` the IkBa stabilization activation was inconclusive: 8.36% [signal inhibitor].
For `COc1ccc(Cn2nnnc2C(C(C)C)N2CCc3ccccc32)cc1` (stereo not given), the IkBa stabilization activation was inconclusive: 5.54% [signal inhibitor].
With `O=C(Nc1ccc(N2CCN(C(=O)c3ccco3)CC2)c(Cl)c1)c1cc2ccccc2o1` the IkBa stabilization activation was “inactive”.
For `Cc1ccc(-c2nc3ccccc3n3c(-c4ccccc4)c4c(=O)n(C)c(=O)n(C)c4c23)cc1`, the IkBa stabilization activation was “inactive”.
In the case of `Cc1ccc(Cn2c(-c3ccccc3)nc3ccccc32)cc1`, the IkBa stabilization activation is reported as inconclusive: 2.91% [signal inhibitor].
For `COc1cc(/C=C(\C#N)c2nc3ccccc3c(=O)[nH]2)cc(OC)c1OC`, the IkBa stabilization activation was inconclusive: 2.03% [signal inhibitor].
For `COc1cccc(-c2cc(N)nn2C(=O)Nc2ccc(Cl)cc2)c1`, the IkBa stabilization activation was inconclusive: 7.21% [signal inhibitor].
With `Cc1ccc(C)c(Cn2c(=O)n(CCCCC(=O)NCc3ccccc3Cl)c(=O)c3ccccc32)c1` the IkBa stabilization activation was “inactive”.
For `Cc1c(N=Cc2c(O)n(Cc3ccco3)c(=O)c3ccccc23)c(=O)n(-c2ccccc2)n1C`, the IkBa stabilization activation was “inactive”.
With `CCOc1ccccc1NC(=O)Cn1ccn(-c2ccccc2)c(=O)c1=O` the IkBa stabilization activation was inconclusive: 0.0183% [signal inhibitor].
With `N#Cc1c(NC(=O)Cn2cnc3ccccc3c2=O)oc(-c2ccccc2)c1-c1ccccc1` the IkBa stabilization activation was inconclusive: 3.63% [signal inhibitor].
In the case of `Nn1c(COc2ccccc2)nnc1SCc1cc(=O)[nH]c2ccccc12`, the IkBa stabilization activation is reported as “inactive”.
For `COc1ccc(S(=O)(=O)Nc2ccc(C)cc2)cc1OC`, the IkBa stabilization activation was “inactive”.
In the case of `CCOC(=O)c1ccc(NC(=O)C2CCCN(c3ccc(Sc4ccc(C)cc4)nn3)C2)cc1` (stereo not given), the IkBa stabilization activation is reported as inconclusive: 2.61% [signal inhibitor].
In the case of `COC(=O)c1ccc(-n2nnc(-c3nc(-c4ccc5c(c4)OCO5)no3)c2C)cc1`, the IkBa stabilization activation is reported as “inactive”.
With `Cc1cc(Br)ccc1NC(=O)CCS(=O)(=O)c1cccc2nsnc12` the IkBa stabilization activation was inconclusive: 3.98% [signal inhibitor].
With `CC(=O)NCCNc1nc2c(S(=O)(=O)c3ccc(C)c(C)c3)nnn2c2ccc(Cl)cc12` the IkBa stabilization activation was inconclusive: 2.86% [signal inhibitor].
For `CCN(CCCCN1C(=O)c2ccccc2C1=O)c1ccc2c(c1)C(=O)N(C)C2=O`, the IkBa stabilization activation was inconclusive: 1.31% [signal inhibitor].
In the case of `Cc1ccc(C(C)C)c(OCC(=O)Nc2ccc(S(=O)(=O)Nc3onc(C)c3C)cc2)c1`, the IkBa stabilization activation is reported as inconclusive: 12.6% [signal inhibitor].
With `CCn1c(SCC(=O)Nc2cccc(NC(=O)c3cccs3)c2)nnc1-c1ccncc1` the IkBa stabilization activation was inconclusive: 13.2% [signal inhibitor].
For `Cc1nn(-c2ccccn2)c2c1-c1nc(N)ncc1CC2`, the IkBa stabilization activation was “inactive”.
With `Cc1ccc(CNC(=O)Cc2coc3cc(C)cc(C)c23)cc1` the IkBa stabilization activation was inconclusive: -1.39% [signal inhibitor].
With `CCOc1cc(-c2noc(CCCC(N)=O)n2)cc(Br)c1OC` the Potency was inconclusive: 5.01 µM [signal inhibitor, partial curve].
